Test results from the supplement of paper PMC4967469.
The IC50 comes from the fitted curve, where viability falls to half of the control; fits outside the tested doses are given as limits. AUC sums up the same curve from the lowest dose to the 256-fold higher top dose; it is 1 without any effect and falls as sensitivity rises. For some of these results: The top dose, if marked as inferred, was calculated from the reported fits. For some of these results: Drugs with an entry number were screened twice under separate entries, and the two screens often disagree.

Tests used:
Test in all cases: Viability of human cancer cell lines after 72 h of drug (GDSC screen)
Tretinoin = compound: CC1=C(/C=C/C(C)=C/C=C/C(C)=C/C(=O)O)C(C)(C)CCC1 [Tretinoin]; conditions: top dose 10 µM; top dose inferred
Experimental: (§1)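 Human cancer cell lines in 384-well plates, medium with 10% serum, drug for 72 h over a 256-fold dose range (nine 2-fold or five 4-fold steps up to the top dose). Adherent lines were fixed and stained with the nucleic acid dye Syto60, suspension lines read with resazurin; signal relative to control wells, capped at 0 and 100%. One two-parameter sigmoid per drug and line, fitted in a mixed model over all curves with the slope shared within a line.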

GSK690693 = compound: CCn1c(-c2nonc2N)nc2c(C#CC(C)(C)O)ncc(OC[C@H]3CCCNC3)c21 [GSK690693]; conditions: top dose 10.24 µM; top dose inferred
Experimental: as §1

UNC0638 = compound: COc1cc2c(NC3CCN(C(C)C)CC3)nc(C3CCCCC3)nc2cc1OCCCN1CCCC1 [UNC0638]
Experimental: as §1

WH-4-023 = compound: COc1ccc(N(C(=O)Oc2c(C)cccc2C)c2ccnc(Nc3ccc(N4CCN(C)CC4)cc3)n2)c(OC)c1 [WH-4-023]; conditions: top dose 5.12 µM; top dose inferred
Experimental: as §1

SB-505124 = compound: Cc1cccc(-c2[nH]c(C(C)(C)C)nc2-c2ccc3c(c2)OCO3)n1 [SB-505124]; conditions: top dose 10 µM; top dose inferred
Experimental: as §1

BX-795 = compound: O=C(NCCCNc1nc(Nc2cccc(NC(=O)N3CCCC3)c2)ncc1I)c1cccs1 [BX-795]; conditions: top dose 5 µM; top dose inferred
Experimental: as §1

PI-103 = compound: Oc1cccc(-c2nc(N3CCOCC3)c3oc4ncccc4c3n2)c1 [PI-103]; conditions: top dose 10.24 µM
Experimental: as §1

[1] = top dose 20 µM, screen: GDSC drug entry 1236, top dose inferred
[2] = top dose 40 µM, screen: GDSC drug entry 245

Cell Line | AUC (Tretinoin) | IC50 (Tretinoin) [µM] | AUC (GSK690693) | IC50 (GSK690693) [µM] | AUC (UNC0638; [1]) | IC50 (UNC0638; [1]) [µM] | AUC (UNC0638; [2]) | IC50 (UNC0638; [2]) [µM] | AUC (WH-4-023) | IC50 (WH-4-023) [µM] | AUC (SB-505124) | IC50 (SB-505124) [µM] | AUC (BX-795) | IC50 (BX-795) [µM] | AUC (PI-103) | IC50 (PI-103) [µM]
COLO-824 (breast, adherent) | 0.975 | > 10 | 0.982 | > 10.2 | 0.813 | 11 | 0.685 | 8.31 | 0.986 | > 5.12 | 0.977 | > 10 | 0.915 | > 5 | 0.775 | 4.13
COR-L88 (small cell lung carcinoma, adherent) | 0.983 | > 10 | 0.984 | > 10.2 | 0.85 | 19.8 | 0.64 | 6.56 | 0.928 | > 5.12 | 0.977 | > 10 | 0.934 | > 5 | 0.908 | > 10.2
COR-L95 (small cell lung carcinoma, adherent) | 0.987 | > 10 | 0.897 | > 10.2 | 0.906 | > 20 | 0.603 | 5.03 | 0.943 | > 5.12 | 0.943 | > 10 | 0.987 | > 5 | 0.711 | 2.8
COR-L279 (small cell lung carcinoma, suspension) | 0.984 | > 10 | 0.833 | 5.64 | 0.82 | 9.88 | 0.569 | 3.77 | 0.986 | > 5.12 | 0.972 | > 10 | 0.921 | > 5 | 0.165 | 0.0717
CP66-MEL (melanoma, adherent) | 0.986 | > 10 | 0.986 | > 10.2 | 0.91 | > 20 | 0.983 | > 40 | 0.834 | 4.02 | 0.983 | > 10 | 0.98 | > 5 | 0.841 | 8.64
CPC-N (small cell lung carcinoma, suspension) | 0.978 | > 10 | 0.88 | > 10.2 | 0.752 | 7.19 | 0.557 | 3.62 | 0.935 | > 5.12 | 0.889 | > 10 | 0.937 | > 5 | 0.591 | 1.17
CTB-1 (B-cell lymphoma, suspension) | 0.904 | > 10 | 0.646 | 1.89 | 0.788 | 12.5 | 0.565 | 4.01 | 0.842 | > 5.12 | 0.926 | > 10 | 0.846 | > 5 | 0.303 | 0.145
CTV-1 (acute myeloid leukaemia, suspension) | 0.956 | > 10 | 0.928 | > 10.2 | 0.819 | 8.62 | 0.701 | 8.03 | 0.014 | < 0.02 | 0.981 | > 10 | 0.947 | > 5 | 0.59 | 1.07
CW-2 (large intestine, adherent) | 0.985 | > 10 | 0.942 | > 10.2 | 0.987 | > 20 | 0.905 | > 40 | 0.983 | > 5.12 | 0.988 | > 10 | 0.975 | > 5 | 0.925 | > 10.2
Calu-6 (lung adenocarcinoma, adherent) | 0.914 | > 10 | 0.984 | > 10.2 | 0.982 | > 20 | 0.821 | 27.7 | 0.951 | > 5.12 | 0.959 | > 10 | 0.975 | > 5 | 0.781 | 4.9
D-247MG (glioma, adherent) | 0.947 | > 10 | 0.972 | > 10.2 | 0.81 | 15.6 | 0.767 | 20.4 | 0.833 | > 5.12 | 0.977 | > 10 | 0.838 | > 5 | 0.117 | < 0.04
D-263MG (glioma, adherent) | 0.956 | > 10 | 0.983 | > 10.2 | 0.936 | > 20 | 0.968 | > 40 | 0.712 | 1.46 | 0.98 | > 10 | 0.773 | 2.36 | 0.983 | > 10.2
D-283MED (medulloblastoma, adherent) | 0.391 | 0.322 | 0.991 | > 10.2 | 0.99 | > 20 | 0.991 | > 40 | 0.982 | > 5.12 | 0.981 | > 10 | 0.699 | 1.07 | 0.991 | > 10.2
D-336MG (glioma, adherent) | 0.937 | > 10 | 0.815 | 7.76 | 0.822 | 16.3 | 0.75 | 16.4 | 0.315 | 0.0831 | 0.972 | > 10 | 0.829 | 4.4 | 0.423 | 0.372
D-502MG (glioma, adherent) | 0.952 | > 10 | 0.945 | > 10.2 | 0.973 | > 20 | 0.824 | > 40 | 0.936 | > 5.12 | 0.945 | > 10 | 0.841 | > 5 | 0.533 | 0.828
DB (B-cell lymphoma, suspension) | 0.958 | > 10 | 0.971 | > 10.2 | 0.731 | 6.26 | 0.436 | 1.64 | 0.983 | > 5.12 | 0.942 | > 10 | 0.767 | 2.09 | 0.765 | 4.19
